The source of these data is the supplement of paper PMC10600219.

Each structure is given as a SMILES string. Counter-ions that a name gives are not always drawn. The full ranking holds about 2,800 compounds; the median of “cell viability relative to vehicle” is about 1.1, and the lowest 2% start at about 0.19. The list shows a part of the results.

The test system of this test is NCI-H2228 parental. The test can be described thus: cell viability relative to vehicle (fraction of vehicle); NCI-H2228 is an ALK-positive lung cancer line and DTP means drug-tolerant persister; higher = less growth inhibition. The settings on record: 100 nM; treatment time 6 days. A digest of the protocol:
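The 3114-agent TargetMol anti-cancer compound library was tested at 100 nM for 6 days on parental NCI-H2228 cells and on persister cells derived with 1000 nM of a targeted drug for 13 days. ATP readout by the CellTiter-Glo 3D Cell Viability Assay gave cell viability relative to DMSO vehicle-treated cells.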
Regarding `C[C@@H]1CN(c2c(F)c(N)c3c(=O)c(C(=O)O)cn(C4CC4)c3c2F)C[C@H](C)N1` [Sparfloxacin], the cell viability was found to be 1.05.
With `CCNC(=O)c1noc(-c2cc(Cl)c(O)cc2O)c1-c1ccc(OC)cc1` the figure was 0.237; with `CS(=O)(=O)Nc1cc(-c2ccc3ncnc(Nc4ccc(F)c(Cl)c4)c3c2)cnc1Cl`, 1.08.
With `CCOC(=O)c1ccc(N2NC(=O)C(=Cc3ccc([N+](=O)[O-])o3)C2=O)cc1` the figure was 1.06; with `O=C(O)c1ccc(CN2C[C@@H]3C[C@H]2CN3Cc2ccc(Oc3ccc(-c4ncco4)cc3)cc2)cc1` [Acebilustat], 1.05.
With `NC(=O)c1[nH]cnc1N` [4-Amino-5-imidazolecarboxamide] the figure was 1.23; with `N#CN=C(NCCCCCCOc1ccc(Cl)cc1)Nc1ccncc1`, 0.0557.
With `CCn1cc(C(=O)O)c(=O)c2cc(F)c(N3CCN(C)CC3)cc21` [Pefloxacin Mesylate Dihydrate], the cell viability amounted to 1.04.
With `C=CC(=O)Nc1cccc(Nc2nc(Nc3ccc(NC4CN(CCF)C4)cc3OC)ncc2C(F)(F)F)c1` the figure was 0.955; with `Cc1cc(Nc2cc(Cl)nc(Oc3ccc([N+](=O)[O-])cc3)n2)n[nH]1` [Autophinib], 1.2.
For `CCn1cc(C(=O)O)c(=O)c2cc(F)c(N3CCNC(C)C3)c(F)c21` (centres undefined) [Lomefloxacin hydrochloride], the cell viability was found to be 0.996.
With `CCn1cc(C(=O)O)c(=O)c2cc(F)c(N3CCNC(C)C3)c(F)c21` (centres undefined) [Lomefloxacin] the figure was 1.32; with `CS(=O)(=O)Nc1ccc([N+](=O)[O-])cc1Oc1ccccc1` [Nimesulide], 0.932.
Consider `NC(=O)c1nc(-c2c(F)cccc2Cl)oc1Nc1ccc(C(=O)N2CCOCC2)cc1`, for which the cell viability was determined as 0.949.
With `CNC(=C[N+](=O)[O-])NCCSCc1csc(CN(C)C)n1` [Nizatidine] the figure was 1.13.
With `CC(C)=CCC[C@](C)(O[C@@H]1O[C@H](CO)[C@@H](O)[C@H](O)[C@H]1O)[C@H]1CC[C@]2(C)[C@@H]1[C@H](O)C[C@@H]1[C@@]3(C)CC[C@H](O)C(C)(C)[C@@H]3[C@@H](O[C@@H]3O[C@H](CO)[C@@H](O)[C@H](O)[C@H]3O[C@@H]3OC[C@@H](O)[C@H](O)[C@H]3O)C[C@]12C` [Notoginsenoside R1] the figure was 1.11.
With `O=c1c(O)c(-c2ccc(O)cc2)oc2c(O)c(O)cc(O)c12` [Herbacetin] the figure was 0.981; with `OCc1ccccc1` [Benzyl alcohol], 1.05; with `CCC1=C[C@@H]2CN(C1)Cc1c([nH]c3ccccc13)[C@@](C(=O)OC)(c1cc3c(cc1OC)N(C)[C@H]1[C@@](O)(C(=O)OC)[C@H](OC(C)=O)[C@]4(CC)C=CCN5CC[C@]31[C@@H]54)C2` [Vinorelbine Tartrate], 0.934.
Turning to `CC(C)CN(C[C@@H](O)[C@H](Cc1ccccc1)NC(=O)O[C@H]1CCOC1)S(=O)(=O)c1ccc(N)cc1` [Amprenavir], the cell viability came out at 1.13.
As to `CC1(C)[C@@H](O[C@H]2O[C@H](C(=O)O)[C@@H](O)[C@H](O)[C@H]2O[C@@H]2O[C@H](C(=O)O)[C@@H](O)[C@H](O)[C@H]2O)CC[C@]2(C)[C@H]3C(=O)C=C4[C@@H]5C[C@@](C)(C(=O)O)CC[C@]5(C)CC[C@@]4(C)[C@]3(C)CC[C@@H]12` [Diammonium Glycyrrhizinate], the cell viability came out at 1.2.
Consider `CC1(C)[C@@H](O[C@H]2O[C@H](C(=O)O)[C@@H](O)[C@H](O)[C@H]2O[C@@H]2O[C@H](C(=O)O)[C@@H](O)[C@H](O)[C@H]2O)CC[C@]2(C)[C@H]3C(=O)C=C4[C@@H]5C[C@@](C)(C(=O)O)CC[C@]5(C)CC[C@@]4(C)[C@]3(C)CC[C@@H]12` [Glycyrrhizin], for which the cell viability worked out at 1.3.
With `COc1cc2nccc(Oc3ccc(NC(=O)Nc4ccc(F)cc4F)c(F)c3)c2cc1OC` the figure was 1.08; with `C[C@]12C=CC(=O)C=C1CC[C@@H]1[C@@H]2C(=O)C[C@@]2(C)[C@H]1CC[C@]2(O)C(=O)CO` [Prednisone], 0.937; with `N#Cc1ccc(Cn2cncc2CN2CCN(c3cccc(Cl)c3)C(=O)C2)cc1`, 0.975.
With `c1ccc2c(Oc3nc(Nc4ccc(N5CCOCC5)cc4)c4ncn(C5CCCCC5)c4n3)cccc2c1` [Purmorphamine] the figure was 1.06; with `CCN1C(=O)CNc2ncc(-c3ccc(-c4nc[nH]n4)nc3C)nc21`, 0.9.
Take `C[n+]1cccc(C(=O)[O-])c1` [Trigonelline hydrochloride]: the cell viability stood at 0.987.
With `COc1cc(C)c(/C=C/C(C)=C/C=C/C(C)=C/C(=O)O)c(C)c1C` [Acitretin] the figure was 1.11.
For `C[C@@H]1COCCN1c1cc(C2([S@](C)(=N)=O)CC2)nc(-c2cc[nH]c3nccc2-3)n1`, the cell viability came out at 1.09.
In the case of `COc1c(O[C@@H]2O[C@H](C(=O)O)[C@@H](O)[C@H](O)[C@H]2O)cc(O)c2c(=O)cc(-c3ccccc3)oc12` [Wogonoside], the cell viability was 1.08.
On to `CC(C)(F)C[C@H](N[C@@H](c1ccc(-c2ccc(S(C)(=O)=O)cc2)cc1)C(F)(F)F)C(=O)NC1(C#N)CC1` [Odanacatib], for which the cell viability is 0.99.
With `CC(C)OC(=O)CCC/C=C\C[C@@H]1[C@@H](CC[C@@H](O)CCc2ccccc2)[C@H](O)C[C@@H]1O` [Latanoprost] the figure was 1.09; with `COc1cc(/C=C/C(=O)O)ccc1O` [Sodium ferulic], 1.15.
With `COc1cc(/C=C/C(=O)O)ccc1O` [Ferulic Acid] the figure was 1.03; with `C[N+]1(C)CCC(=C(c2ccccc2)c2ccccc2)CC1` [Diphemanil mesylate], 1.09.
With `NS(=O)(=O)c1cc2c(cc1Cl)NCNS2(=O)=O` [Hydrochlorothiazide] the figure was 1.27; with `O=C(NC1CCOCC1)c1ccc(-c2cc(-c3c[nH]nc3-c3ccccn3)ccn2)cc1`, 1.01.
For the compound `O=C1C(=O)N(Cc2ccc(Cl)c(Cl)c2)c2ccccc21` [Apoptosis Activator 2], the cell viability was found to be 1.13.
In the case of `CN(C)CCc1c[nH]c2ccc(C[C@H]3COC(=O)N3)cc12` [Zolmitriptan], the cell viability was 1.02.
With `CN(C)CCC=C1c2ccccc2C=Cc2ccccc21` [Cyclobenzaprine hydrochloride] the figure was 1.4; with `O=C1c2cccc(O)c2C(=O)c2c(O)cc(CO)cc21` [Aloe-emodin], 1.3; with `O=c1[nH]c(=O)n([C@H]2C[C@H](O)[C@@H](CO)O2)cc1F` [Floxuridine], 0.197.
With `C/C(=N\NC(=S)N1CCC1)c1ccccn1` the figure was 0.136.
With `CC1=C(/C=C/C(C)=C/C=C/C(C)=C/C(=O)Nc2ccc(O)cc2)C(C)(C)CCC1` [Fenretinide] the figure was 0.746.
Take `NC(=O)c1ncn([C@@H]2O[C@H](CO)[C@@H](O)[C@H]2O)c1N` [AICAR (Acadesine)]: the cell viability amounted to 1.4.
Take `Nc1ncnc2c1ncn2[C@@H]1O[C@H](COP(=O)(O)O)[C@@H](O)[C@H]1O` [Adenosine 5'-monophosphate]: the cell viability turned out to be 1.22.
Take `O=C(O)c1cc(O)c2c(c1)[C@H]([C@H]1c3cc(C(=O)O)cc(O)c3C(=O)c3c(O[C@@H]4O[C@H](CO)[C@@H](O)[C@H](O)[C@H]4O)cccc31)c1cccc(O[C@@H]3O[C@H](CO)[C@@H](O)[C@H](O)[C@H]3O)c1C2=O` [Sennoside A]: the cell viability came out at 1.02.
With `CC(=O)Oc1cc(C(C)C)c(OCCN(C)C)cc1C` [Moxisylyte hydrochloride] the figure was 1.15; with `CC(c1cc2ccccc2s1)N(O)C(N)=O` (centres undefined) [Zileuton], 1.12.
With `C[C@@H]1C(=O)O[C@H]2C[C@@]34[C@H]5C[C@@H](C(C)(C)C)[C@]36[C@@H](OC(=O)[C@@H]6O)O[C@@]4(C(=O)O5)[C@]21O` [Ginkgolide A] the figure was 1.1.
With `CC1=C(C(=O)OC2CCCCC2)C(c2ccc([N+](=O)[O-])cc2)C2=C(CC(C)(C)CC2=O)N1` (centres undefined) the figure was 1.11; with `FC(F)(F)c1ccc(/C=C/c2nc(COc3ccc(CCCCn4ccnn4)cc3)co2)cc1` [Mubritinib], 0.811; with `Nc1ccn(C[C@@H](CO)OCP(=O)(O)O)c(=O)n1` [Cidofovir], 1.17.
For `O=C1c2c(O)cc(O)cc2OC(c2ccc(O)c(O)c2)C1O` (centres undefined) [Taxifolin], the cell viability was 1.08.
With `CN(C)CCCOc1nn(Cc2ccccc2)c2ccccc12` [Benzydamine hydrochloride] the figure was 1.09; with `CCc1nc(C(N)=O)c(Nc2ccc(N3CCC(N4CCN(C)CC4)CC3)c(OC)c2)nc1NC1CCOCC1` [Gilteritinib], 0.363; with `C#C[C@]1(O)CC[C@H]2[C@@H]3[C@H](C)CC4=C(CCC(=O)C4)[C@H]3CC[C@@]21C` [Tibolone], 0.945.
With `CC(C)(C)c1cc(C(=O)C(C#N)=NNc2cccc(Cl)c2)no1` the figure was 1.27.
For the compound `COc1ccc(CC(=O)Nc2nc3c(s2)CCc2ccccc2-3)cc1OC`, the cell viability turned out to be 1.14.
With `CC(=O)OCC(=O)[C@@]1(O)CC[C@H]2[C@@H]3CCC4=CC(=O)CC[C@]4(C)[C@H]3C(=O)C[C@@]21C` [Cortisone acetate] the figure was 1.18; with `CCOC(=O)N1CCC(NCCNC(=O)c2ccccc2C)CC1`, 1.1; with `COc1cc2nc(N3CCN(C(=O)C4CCCO4)CC3)nc(N)c2cc1OC` (centres undefined) [Terazosin hydrochloride], 1.07.
With `Nc1nccc(Oc2ccc3c(C(=O)Nc4cccc(C(F)(F)F)c4)cccc3c2)n1` the figure was 1.15; with `CN1CCN(c2cccc(Nc3nc4c(-c5ccc(S(C)(=O)=O)cc5)cccn4n3)c2)CC1`, 1.19; with `O=C(/C=C/c1ccc2ccc(C(F)(F)F)cc2n1)c1ccncc1`, 1.16.
With `CN(C)C/C=C/C(=O)Nc1ccc(C(=O)N2CCC[C@@H](Nc3ncc(Cl)c(-c4c[nH]c5ccccc45)n3)C2)cc1` the figure was 0.931; with `CN[C@@H](C)C(=O)N[C@H](C(=O)N1CCC[C@H]1C(=O)Nc1snnc1-c1ccccc1)C1CCCCC1`, 1.01; with `NC(=O)[C@@H]1CC[C@@H]2CN1C(=O)N2OS(=O)(=O)O` [Avibactam sodium], 0.907.
